Reference: the supplement of paper PMC11417369
Some of the results follow.

These sequences were tested on PfSIP2 AP2 domain 1 (GST-tagged) (assay: gcPBM binding intensity (ln(normalized median fluorescence intensity)); higher = stronger DNA binding).
In short: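 GST-tagged P. falciparum DNA-binding domains, expressed in E. coli (about 25 μg on average), were applied for 1 h to an Agilent 4 × 180k array of primer-extended double-stranded 36-bp intergenic genomic probes plus negative controls. The binding buffer was 1× PBS with 1% milk, 0.2 mg/ml BSA, 0.5% salmon testes DNA and 0.03% Triton X-100. Bound protein was detected with Alexa488 anti-GST antibody and scanned at 488 nm. Binding intensity is the highest Masliner-normalised natural-log median intensity across replicate spots of either probe orientation.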
“TATAGTTATATTAGAAGTACTTCATTTTAACATATT [XGTACX_site7101]” was tested, and the “gcPBM binding intensity (ln)” value was 6.87.
“TTAATTACATGTTATTGTACGTATTTTCTATCTATC [XGTACX_site844]” was tested, and the “gcPBM binding intensity (ln)” value was 7.2.
With “AAAAAAAAAAATATATTATTTTACTTGTTTATTTTA [CACACA_negctrl_site1447]” the “gcPBM binding intensity (ln)” value was 6.68.
For “AAAAAGAAGAATATATGTACACAAAATTTATGAGTT [XGTACX_site8609]”, the “gcPBM binding intensity (ln)” value was 6.91.
In the case of “CATTATAAGAAACACACACACATATATATATATATA [CACACA_site1051]”, the “gcPBM binding intensity (ln)” value is reported as 9.23.
For “AAATTCTTAACCCAACGTACATATAATAAATTCTTA [XGTACX_site8538]”, the “gcPBM binding intensity (ln)” value was 6.94.
“TAAACCAAACAATTATGTATAAGATGTATATATATA [GTGCAC_negctrl_site438]” was tested, and the “gcPBM binding intensity (ln)” value was 8.9.
In the case of “AGAAGAAAAGAAATATGTACATAAACGTCTGAACTA [XGTACX_site1699]”, the “gcPBM binding intensity (ln)” value is reported as 6.9.
“ATAACAAATATGATAGCATGCTACATATTACAACTT [TGCATGCA_site524]” was tested, and the “gcPBM binding intensity (ln)” value was 6.83.
With “GTTCCATATATTACATGTACATATTTTTACATTTAA [XGTACX_site660]” the “gcPBM binding intensity (ln)” value was 7.34.
For “TGATTAATAGCAGGTAGTACTATAATAATATAAATA [XGTACX_site2776]”, the “gcPBM binding intensity (ln)” value was 7.1.
“TGACATAAATTTAATACACACACAAAGAAAAAAAAA [CACACA_site9354]” was tested, and the “gcPBM binding intensity (ln)” value was 7.06.
With “TTTAAAAAAAAAAAAAAAAATTCTACATGTAATTTA [CACACA_negctrl_site1205]” the “gcPBM binding intensity (ln)” value was 6.59.
“ATATATCACATGAACATTAAAAAAAAAAAAGAGGGG [TGCATGCA_negctrl_site187]” was tested, and the “gcPBM binding intensity (ln)” value was 7.39.
With “ATATCACATTCCACGGTACACACTAATAGAAAAATC [CACACA_site9204]” the “gcPBM binding intensity (ln)” value was 7.42.
With “TTTATACAATTAGACACACACAAAAAGTATAAATAT [CACACA_site6637]” the “gcPBM binding intensity (ln)” value was 7.01.
For “GGAACATATGAACTCACACACATTTTCACTTAAATA [CACACA_site3684]”, the “gcPBM binding intensity (ln)” value was 6.91.
With “TAAAATGATAAATGAATGTGATCATTTTATAAAATA [CACACA_negctrl_site674]” the “gcPBM binding intensity (ln)” value was 6.65.
“AATATTTATAAATTTACACACACACCGGTGAACATA [CACACA_site8579]” was tested, and the “gcPBM binding intensity (ln)” value was 6.92.
In the case of TTTAAACTAGAACAAGTGCAGATATGTATAATAATA, the “gcPBM binding intensity (ln)” value is reported as 7.66.
With “TATTTTTAGAAAATAAAGAAGGAGAATTGAAAATAT [CACACA_negctrl_site361]” the “gcPBM binding intensity (ln)” value was 7.06.
“ATTTATTTTTATCAAGCATGCATAAAAAATAAATTA [TGCATGCA_site440]” was tested, and the “gcPBM binding intensity (ln)” value was 6.91.
For “AAGAAAAGATATATATATAAATATATATATATATAT [TGCATGCA_negctrl_site353]”, the “gcPBM binding intensity (ln)” value was 9.35.
With “TTTTATTTTGGAACGTGTACATATAATTATTTATTG [XGTACX_site8094]” the “gcPBM binding intensity (ln)” value was 7.17.
In the case of “AAAATATATACAAGCAAACACACGTAATATATATTA [CACACA_site2152]”, the “gcPBM binding intensity (ln)” value is reported as 7.02.
For “ATATTACTAATTAATGGTACACGTTATAATAAACTA [XGTACX_site7051]”, the “gcPBM binding intensity (ln)” value was 7.12.
For “GCATAAAATATGATCGCACACTGTTTAAAATACTTA [CACACA_site828]”, the “gcPBM binding intensity (ln)” value was 6.99.
With “AGGTAGTTCTGTATCACACACATATAAATATAAATA [CACACA_site7110]” the “gcPBM binding intensity (ln)” value was 7.08.
For “ATACCTTCTTCATTCACACATATACGTAAAATGTTC [CACACA_site5657]”, the “gcPBM binding intensity (ln)” value was 7.53.
With “CACCTGCACGATTGCACACAAATATGTTTTGAAGAT [CACACA_site2103]” the “gcPBM binding intensity (ln)” value was 8.28.
“ACTACATAAAATGACACACACAAACTTTAAAATTTA [CACACA_site3474]” was tested, and the “gcPBM binding intensity (ln)” value was 7.18.
For “ATATTTTCTAATCAATGTACTTATTCTACACATTAA [XGTACX_site5774]”, the “gcPBM binding intensity (ln)” value was 7.15.
In the case of “TATATTTGGAAACACACACACAAAAAAAAAAAAAAA [CACACA_site2474]”, the “gcPBM binding intensity (ln)” value is reported as 6.99.
With ATATTTTATGTAAAGGTGCAAAACAACATTAAAAAA the “gcPBM binding intensity (ln)” value was 10.5.
“ACCCAATTTTTTAGTACACACATATAAATATATAAA [CACACA_site4944]” was tested, and the “gcPBM binding intensity (ln)” value was 7.44.
For “TAAAACATGTTTTTATATATTATTATTATATTTATA [XGTACX_negctrl_site8]”, the “gcPBM binding intensity (ln)” value was 6.83.
“AACACATACAGACACACACACAAAAAAAAAAAAAAA [CACACA_site6322]” was tested, and the “gcPBM binding intensity (ln)” value was 7.31.
For “AAACCTTTAGAAAATCGTACAAAACATAACCACCTA [XGTACX_site1098]”, the “gcPBM binding intensity (ln)” value was 7.07.
“ATTTTTTTTTTTTGTTTTTTCTTACAAATTAAATGA [CACACA_negctrl_site1457]” was tested, and the “gcPBM binding intensity (ln)” value was 6.92.
In the case of “AAATAACTCATGGGTTGTACTTAAAAAAAAAAAGAT [XGTACX_site4168]”, the “gcPBM binding intensity (ln)” value is reported as 7.15.
TTTTTTTTTTTTCACGTGCACTATACATATAAGTAA was tested, and the “gcPBM binding intensity (ln)” value was 10.5.
“CTCTTGTCATTTTGCACACACACATGGATAGGTTAT [CACACA_site5655]” was tested, and the “gcPBM binding intensity (ln)” value was 7.98.
In the case of “ATATATACATTTCTATGTACATATGTATATATGTAT [XGTACX_site1522]”, the “gcPBM binding intensity (ln)” value is reported as 7.18.
“TTAATCTAGAGAAATTGTACATTTTATTAACACAAT [XGTACX_site1190]” was tested, and the “gcPBM binding intensity (ln)” value was 6.89.
For “ATAAAAGAAAACAATAGTACTTTAGTTTTTCTTTTT [XGTACX_site5686]”, the “gcPBM binding intensity (ln)” value was 6.59.
“TATATTTTAGTTAATGCATGTGTGCATCCATTTAAA [TGCATGCA_site887]” was tested, and the “gcPBM binding intensity (ln)” value was 8.9.
For “ATACATATATATATATGTACACACATTAATAAAAAA [XGTACX_site6874]”, the “gcPBM binding intensity (ln)” value was 7.32.
“TACCAAAATAGACACACACACAAAATATGTAAATAT [CACACA_site6963]” was tested, and the “gcPBM binding intensity (ln)” value was 6.89.
“TATAAATAAATTTATACACACACACCCATATATATA [CACACA_site8183]” was tested, and the “gcPBM binding intensity (ln)” value was 7.39.
In the case of “AAAAAAAAAAGACACACACACAAATACAAATGGTAA [CACACA_site6906]”, the “gcPBM binding intensity (ln)” value is reported as 6.95.
With “TTTGTTATATTTAATACACACATATTATAAACCCAT [CACACA_site3716]” the “gcPBM binding intensity (ln)” value was 7.38.
“ATAAAGCCATACAATACACACATTTTACATGGCTGT [CACACA_site5756]” was tested, and the “gcPBM binding intensity (ln)” value was 6.88.
With “TAAAATTAGGAAATTGCACACAAAAAAAAACATATT [CACACA_site9349]” the “gcPBM binding intensity (ln)” value was 6.98.
For “TAAACAAAATATATATGTACATATATATATATATAT [XGTACX_site6502]”, the “gcPBM binding intensity (ln)” value was 9.3.
In the case of “ATCTAGCCATTTTTTAGTACACATAAATAAAAAAAA [XGTACX_site1257]”, the “gcPBM binding intensity (ln)” value is reported as 7.64.
In the case of “CATTAATAACAAAGTTGTACAAGATAATATTATATG [XGTACX_site6832]”, the “gcPBM binding intensity (ln)” value is reported as 7.26.
In the case of “TTTTATTTGACAAGCACACACTTAAATATATTTATA [CACACA_site7557]”, the “gcPBM binding intensity (ln)” value is reported as 7.25.
